Assay results reported in article PMC9477748, “Organizing structural principles of the IL-17 ligand–receptor axis” (Nature, 2022).

Biological target: T1, IL-25–IL-17RB complex (2:2) (human, UniProt Q9H293 30-177; Q9NRM6 18-288)
T1 construct: IL-25 (IL-17E), human, amino acids 30-177; signal peptide in the construct; IL-17 receptor B (IL-17RB), human, amino acids 1-288; also called RB–IL-25; source: IL-25 and IL-17RB co-expressed in Expi293F GnTI- cells, purified (Ni-NTA, SEC) for cryo-EM; copies: 2 + 2
T1 sequence (looked up) 1: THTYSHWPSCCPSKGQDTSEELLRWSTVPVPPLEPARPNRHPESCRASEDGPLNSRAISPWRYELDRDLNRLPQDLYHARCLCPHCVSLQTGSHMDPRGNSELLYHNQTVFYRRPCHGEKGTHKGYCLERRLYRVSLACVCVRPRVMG
T1 sequence (looked up) 2: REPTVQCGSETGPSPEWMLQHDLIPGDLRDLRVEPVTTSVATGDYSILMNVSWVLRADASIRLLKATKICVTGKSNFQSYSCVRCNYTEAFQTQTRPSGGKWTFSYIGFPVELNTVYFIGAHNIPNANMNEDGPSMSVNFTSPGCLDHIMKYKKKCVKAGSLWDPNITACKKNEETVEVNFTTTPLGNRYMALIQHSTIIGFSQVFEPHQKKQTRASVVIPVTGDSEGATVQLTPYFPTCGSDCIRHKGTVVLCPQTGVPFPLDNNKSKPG
Assay: SPR; Biacore T100; about 300 RU of site-specifically biotinylated IL-17RA immobilized on a Series S Sensor Chip SA; analytes in twofold serial dilutions; regeneration 2 M MgCl2; steady-state affinity analysis
Conditions: both partners purified

B1: site-specifically biotinylated IL-17RA, immobilized (receptor)
chain: not shown
modifications: biotin (site-specific, by the biotin ligase BirA)
notes: signal peptide in the construct; IL-17 receptor A (IL-17RA), human, […]; The methods list no IL-17RA construct with an Avitag, though only proteins with Avitags are said to have been biotinylated; the limits […] are those of the only soluble IL-17RA named; also called immobilized IL-17RA; source: Expi293F cells, purified (Ni-NTA, SEC), biotinylated with BirA
Kd: 5.2 µM
